Here are results for 89 compounds from PubChem BioAssay AID463173 (ICCB-Longwood Screening Facility, Harvard Medical School, 2010).

Structures are written as SMILES. In all, about 52,000 compounds went through this assay and about 1,700 (3.3%) were called active. Rule as the data show it: active = survival mostly below about 52% (no sharp cut-off); inactive = mostly above about 56%. Some of the results follow.

The subject of this experiment is Wild type. The experiment is described as follows: growth inhibition of S. aureus wild type versus tarO mutant, primary screen, teichoic acid synthesis inhibitors, RN4220, OD600 (AID 463173). Conditions: S. aureus RN4220 wild type/DeltatarO growth, OD600, 18 h, active compounds read low, screened at 18.75 µg/mL (by protocol).
With `CCOc1ccc(C(=O)N2CCN(Cc3cc(=O)n4nc(-c5cccc(OC)c5)sc4n3)CC2)cc1`, the survival is inactive: 73%.

In the case of `O=C(COc1ccc(Br)cc1)N1CCOCC1`, the survival was inactive: 99%.

With `COc1ccc(NC(=O)C(C)n2nc(C)c3c(C)n(-c4ccccc4)nc3c2=O)cc1Cl` (centres undefined), the survival is inactive: 79%.

`CCOCCCNC(=O)C(c1ccc(Cl)cc1)N(Cc1ccc2c(c1)OCO2)C(=O)c1ccccc1O` (centres undefined): the survival is inactive: 78%.

With `CC(=O)Nc1ccc(Nc2nc3ccc(C)cc3n3nnnc23)cc1`, the survival was inactive: 73%.

On to `COc1cc(C=Nc2ccc3[nH]c(=O)[nH]c3c2)ccc1OC(C)=O`, for which the survival is inactive: 103%.

For `Cc1ccc(C)c(OCCCn2c(-c3ccc(Cl)cc3)nc3ccccc3c2=O)c1`, the survival was inactive: 76%.

Regarding `COc1ccc(-c2nc(S(=O)(=O)c3ccccc3)c(N3CCCCC3)o2)cc1`, the survival is inactive: 76%.

Consider `CCN(Cc1nc(-c2ccc(OC)cc2)oc1C)S(=O)(=O)c1ccc(Cl)cc1`, for which the survival was inactive: 74%.

Consider `COc1ccc(N2CCN(C(=O)c3cccn4c(=O)c5ccc(Cl)cc5nc34)CC2)cc1`, for which the survival was inactive: 132%.

`CCN1C(=O)c2ccccc2Sc2ccc(NC(=O)Nc3ccc(C(C)=O)cc3)cc21`: the survival is inactive: 67%.

`Cc1ccc2oc(=O)c3cnn(CC(=O)Nc4ccc(Br)cc4C)c3c2c1`: the survival is inactive: 86%.

As to `Cc1ccccc1CNCCCSc1nnnn1-c1ccccc1`, the survival is inactive: 87%.

In the case of `Cc1ccc(S(=O)(=O)NCCN2C(=N)N(c3nc(N(C)C)nc(N(C)C)n3)CC2=O)cc1`, the survival was inactive: 102%.

For the compound `CCc1cccc(C)c1NC(=O)COCc1cc(-c2ccc3c(c2)OCO3)on1`, the survival was inactive: 95%.

`CC1CCCCN1C(=O)CSc1nc2ccccc2nc1Cc1ccc(Cl)cc1` (centres undefined): the survival is inactive: 85%.

Turning to `O=C(c1ccco1)N(Cc1cccnc1)c1nc2c(F)cccc2s1`, the survival is inactive: 112%.

With `CCc1ccccc1NC(=O)C(=O)c1cc(C)n(-c2ccccc2F)c1C`, the survival is inactive: 91%.

`Cc1cc(C)c(Cn2c(C)c(CNCc3ccccc3C)c(C(=O)O)c2C)c(C)c1`: the survival is inactive: 95%.

For the compound `Cc1ccc(NCc2nc3ccccc3n2CCOc2ccccc2C)cc1`, the survival is active: -20%.

As to `Nc1c(C(=O)Nc2ccccc2Cl)nnn1Cc1cccc(Cl)c1`, the survival was inactive: 96%.

Regarding `COc1cc(OC)cc(-c2nc3nc(C)c(CCC(=O)Nc4ccc(C)cc4)c(C)n3n2)c1`, the survival is inactive: 88%.

For the compound `Cc1cc2c(cc1S(=O)(=O)CCC(=O)Nc1ccc(OC(F)(F)F)cc1)OCC(=O)N2`, the survival is inactive: 81%.

`COc1ccc(NC(=O)Nc2cccc(C)n2)c(OC)c1`: the survival is inactive: 72%.

Consider `Cc1c2cnn(CC(=O)O)c(=O)c2c(C)n1Cc1cccc(Cl)c1`, for which the survival is inactive: 80%.

As for `O=C(CC1N=C2c3ccccc3N=C(SCc3ccc(Cl)cc3)N2C1=O)NC1CCCCC1` (centres undefined), the survival was inactive: 68%.

For the compound `CCNc1nc2c(c(=O)n(C)c(=O)n2C)n1CC(O)COc1ccccc1` (centres undefined), the survival was inactive: 72%.

In the case of `Cc1c(CCNS(=O)(=O)c2ccccc2)sc2nc(-c3ccc(Cl)cc3)nn12`, the survival was active: 1%.

For the compound `Cc1ccc(-c2cnc(NCc3ccc(C(C)C)cc3)n2C)cc1`, the survival is active: -13%.

Regarding `O=C(NCc1cccc(Br)c1)c1ccc(-n2cnc3cccnc32)cc1`, the survival is inactive: 140%.

Consider `Cc1ccc(CNC(=O)COCc2cc(-c3ccc4c(c3)OCO4)on2)cc1`, for which the survival is inactive: 78%.

For `CCOc1ccc(S(=O)(=O)c2cn(Cc3ccc(C)cc3)c3ccc(OC)cc3c2=O)cc1`, the survival is inactive: 127%.

`CCOc1ccc2cc(-c3nnc(Nc4ccccc4F)s3)c(=O)oc2c1`: the survival was inactive: 72%.

As for `COc1ccc(C(C(=O)NCc2ccccc2)N(C(=O)Cn2nnc3ccccc32)c2ccc(F)cc2)cc1` (centres undefined), the survival was inactive: 88%.

As to `Cc1cccc(-c2noc(CNC(=O)c3ccc(C)cc3C)n2)c1`, the survival was inactive: 89%.

Turning to `Cc1ccc(-n2ncc3c(N4CCC(C)CC4)ncnc32)cc1C`, the survival was inactive: 71%.

For the compound `COc1ccc(-c2c[n+](=O)c3c(n2[O-])CCC3)cc1`, the survival was inactive: 103%.

On to `Cc1ccc(Cl)cc1N1CCN(C(=O)c2cn(C)c3ccc(S(=O)(=O)N4CCC(C)CC4)cc3c2=O)CC1`, for which the survival is inactive: 90%.

On to `COc1ccc(NCc2nc3ccccc3n2CCOc2ccc(C)cc2)cc1`, for which the survival was active: -18%.

For `O=C(NCC(c1ccc(Cl)cc1)N1CCCCC1)c1ccccc1` (centres undefined), the survival was inactive: 85%.

Take `Cc1cccc(NC(=O)C2CCCN(c3nnc(-n4c(C)ccc4C)s3)C2)c1C` (centres undefined): the survival was inactive: 76%.

Take `CCOc1cccc(C2c3[nH]c4ccccc4c3CCN2C(=O)CCc2ccccc2)c1` (centres undefined): the survival was inactive: 76%.

With `CCOC(=O)c1nc(Nc2ccccc2C)c2ccccc2n1`, the survival is inactive: 77%.

For the compound `O=C(Nc1nc2ccc(Cl)cc2s1)c1ccc(S(=O)(=O)N2CCCC2)cc1`, the survival was inactive: 121%.

`CCN(CC)c1ccc(C(=O)N2CCC(c3ccncc3)CC2)cc1`: the survival was inactive: 85%.

With `CCN(CC)S(=O)(=O)c1ccc2nc(NC(=O)c3ccc(Br)o3)sc2c1`, the survival is inactive: 79%.

With `CCCC1(C(=O)OCC)NC(c2ccccc2F)C2C(=O)N(c3ccccc3)C(=O)C21` (centres undefined), the survival is inactive: 94%.

Consider `CCCN(C(=O)Cn1c(=O)oc2cc(Cl)ccc21)c1ccc(C(C)C)cc1`, for which the survival is active: 8%.

For the compound `COc1ccc(C)cc1NC(=O)CN1C(=O)COc2ccc(S(=O)(=O)N3CCCCCC3)cc21`, the survival is inactive: 90%.

Take `CCOC(=O)C1CCCN(C(=O)c2ccc3c(c2)N(Cc2cccc(Cl)c2)C(=O)c2ccccc2S3(=O)=O)C1` (centres undefined): the survival is inactive: 75%.

Regarding `COc1ccc(-n2ncc3c(=O)n(CC(=O)N4CC(C)CC(C)C4)cnc32)cc1` (centres undefined), the survival was inactive: 109%.

On to `CCc1ccc(S(=O)(=O)c2cn(C)c3cc(OC)c(OC)cc3c2=O)cc1`, for which the survival is inactive: 129%.

In the case of `CCC1CCc2c(sc(NC(=O)C3c4ccccc4Oc4ccccc43)c2C#N)C1` (centres undefined), the survival is inactive: 79%.

Consider `O=C(CN1C(=O)COc2ccc(S(=O)(=O)N3CCCCC3)cc21)NCc1ccccc1Cl`, for which the survival was inactive: 99%.

Turning to `Cc1ccc(C)c(CN2C(=O)c3ccccc3S(=O)(=O)c3ccc(C(=O)N4CCN(C)CC4)cc32)c1`, the survival was inactive: 93%.

As for `Cc1cc(Nc2cc(Cl)ccc2C)n2nc(Cc3ccccc3)nc2n1`, the survival was inactive: 73%.

Regarding `Cc1cc(C)c(S(=O)(=O)NCC(c2ccc(N(C)C)cc2)N2CCc3ccccc32)c(C)c1` (centres undefined), the survival was inactive: 101%.

As to `CCOc1ccccc1CNC(=O)CSc1n[nH]c(-c2ccccc2Cl)n1`, the survival is inactive: 72%.

For the compound `COc1ccc(CNC(=O)Cc2coc3ccc(C(C)C)cc23)cc1`, the survival is inactive: 93%.

Regarding `CCC(=O)Nc1nc(C)c(-c2csc(Nc3ccc(S(N)(=O)=O)cc3)n2)s1`, the survival was inactive: 128%.

For the compound `CN(C)CCCN1C(=O)C2CCc3[nH]c4ccccc4c3C2C1=O` (centres undefined), the survival is inactive: 103%.

On to `Cc1cc(OCCn2cc(C(=O)c3ccco3)c3ccccc32)ccc1Cl`, for which the survival was inactive: 54%.

In the case of `COc1ccccc1NC(=O)CSc1oc(-c2ccco2)nc1S(=O)(=O)c1ccc(Br)cc1`, the survival is inactive: 93%.

For the compound `COc1cccc(CNC(=O)CCc2nc(-c3ccc(C)cc3)no2)c1`, the survival is inactive: 165%.

For the compound `O=C(Nc1ccccc1)c1ccncc1`, the survival was inactive: 91%.

With `COc1ccc(-c2nnc(SCC(=O)Oc3cccc(C)c3C)o2)cc1`, the survival is inactive: 83%.

With `Cc1nn(CC(=O)NCc2cccc(F)c2)c(=O)c2c(C)n(-c3ccc(Cl)cc3)nc12`, the survival is inactive: 75%.

As to `COc1ccccc1Oc1nc2c(C)cccn2c(=O)c1/C=C(\C#N)c1nc2ccccc2[nH]1`, the survival is inactive: 65%.

Regarding `COc1ccc(N(C(=O)c2ccccc2C)S(=O)(=O)c2ccc(C)cc2)cc1`, the survival was inactive: 79%.

As to `Cc1ccc2c(c1)c1c(c(=O)n(-c3ccccc3)c(=O)n1CC(=O)NCCC1=CCCCC1)n2C`, the survival was inactive: 68%.

For the compound `CC1CN(C(=O)CCC(=O)NCc2cccs2)c2cc(Cl)ccc2O1` (centres undefined), the survival was inactive: 95%.

As for `O=S(=O)(c1cc(Cl)ccc1Cl)N1CCCC1`, the survival is inactive: 78%.

On to `CCOC(=O)C1=C(CN2CCN(c3cc(C)ccc3C)CC2)NC(=O)NC1c1ccccc1` (centres undefined), for which the survival is inactive: 73%.

Turning to `COc1ccc(-n2cc(C(=O)NCc3ccc(Cl)cc3)c3ccccc3c2=O)cc1`, the survival is inactive: 128%.

`COc1ccc2nc(N(Cc3cccnc3)C(=O)c3ccco3)sc2c1`: the survival is inactive: 70%.

`Cc1ccc(CCNC(=O)c2cc3sccc3n2Cc2ccc(Cl)cc2)cc1`: the survival was inactive: 92%.

On to `CCOC(=O)c1cc(-c2ccc(C)cc2)n(CC(=O)Nc2ccc(OC)c(Cl)c2)c1C`, for which the survival is inactive: 99%.

As for `O=C(NC1CCCC1)C(c1ccccc1)N(Cc1ccc2c(c1)OCO2)C(=O)c1ccco1` (centres undefined), the survival was inactive: 110%.

For the compound `CCc1ccc2oc(C(=O)NCCc3ccc(OC)c(OC)c3)cc(=O)c2c1`, the survival is inactive: 83%.

Regarding `COc1ccccc1N1CCN(S(=O)(=O)c2cc(-c3cc(C)no3)ccc2C)CC1`, the survival is inactive: 68%.

On to `COc1cccc(CN2C(=O)C3(SCC(=O)N3c3cc(C)cc(C)c3)c3ccccc32)c1` (centres undefined), for which the survival was inactive: 70%.

Consider `O=C(c1ccc2c(c1)OCCO2)N(Cc1cccnc1)c1nc2ccc(Cl)cc2s1`, for which the survival was inactive: 78%.

With `Cc1ccc(-c2nnn(CC(=O)N(CC(=O)NCCC(C)C)c3ccc(F)cc3)n2)cc1`, the survival is inactive: 84%.

As for `CCC(C)NC(=O)c1ccccc1NC(=O)C1CCN(S(=O)(=O)Cc2ccccc2)CC1` (centres undefined), the survival is inactive: 83%.

On to `COc1ccc(NC(=O)CN2C(=O)C(C)Oc3ccccc32)cc1` (centres undefined), for which the survival is inactive: 97%.

Regarding `COc1ccc(S(=O)(=O)Nc2cc(-c3cn4cccc(C)c4n3)ccc2C)cc1C`, the survival is inactive: 59%.

`Cc1ccc(C(C)C)c(OCC(=O)Nc2nc3c(s2)CCCC3)c1`: the survival was inactive: 93%.

For `CCCCCOC(=O)c1ccc(Nc2nc(C(=O)OCC)nc3ccccc23)cc1`, the survival was inactive: 83%.

Regarding `Cc1coc2c1c(C)cc1oc(=O)c(CC(=O)NCc3ccc(Cl)cc3)c(C)c12`, the survival was inactive: 90%.
